Results from article PMC7608744 (Genes & Development, 2020).

Biological target: Dnmt3a2 (residues 421–908; pXC531), ΔPWWP (mouse, UniProt O88508 fragment)
Experiment: co-purification of the complex over two affinity columns

B1: Dnmt3b3 ([…]; pXC1032), ΔPWWP (domain or fragment)
chain: not shown
Question: Does B1 bind?
Answer: binds
